From PubChem BioAssay (NCATS)
This list was built around the results that the source calls inconclusive (neither active nor inactive); the mix of calls is not that of the screen. For part of these data: Potencies beside an inconclusive call are fits to weak or partial responses and may not hold up. Active and inactive are the calls of the source. Unless noted, calls come from the whole dose curve; as a rule, active = well fitted curve in the direction sought with a large enough effect; inconclusive = small, poorly fitted or top-dose-only effect, or another doubt; inactive = no such curve, though single readings can be large; an effect the other way counts as inactive or inconclusive.

How the values were obtained:
[1] = P-glycoprotein substrates identified in KB-8-5-11 adenocarcinoma cell line, qHTS therapeutic library screen (AID 1346987); note: potency is the fitted concentration of half-maximal effect; nearly all actives have a fitted effect of over 65% in size
In short: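 Luminescence from CellTiter-Glo, read 5 min after addition, quantified survival of KB-8-5-11 (P-gp-overexpressing) cells exposed to compounds for 72 h. AC50 was derived from concentration-response curves.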

[2] = qHTS to identify inhibitors of the type 1 interferon - major histocompatibility complex class I in skeletal muscle: primary screen against the NCATS Mechanism Interrogation Plate v5.0 (MIPE) Libary (AID 1347411); conditions: iHSKM cells + IFN-b, HiBiT-tagged MHC-I luminescence, 24 h; activity change, negative = inhibition: at 45.8 µM (top of the series);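 note: plate controls were vehicle for no effect and reference inhibitor for full effect; nearly all actives have a fitted effect of over 65% in size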
In short: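 Seed engineered human myoblasts (HLA-B HiBit) in medium without dexamethasone containing 4 ng/ml IFN-beta; after 1 hr add compound titrations (top 46 uM final). Incubate 24 hrs at 37 C, lyse 10 min with HiBiT reagent, read luminescence.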

[3] = Primary redox qHTS assay for identification of artifact compounds. (AID 1845223); conditions: Amplex Red/HRP redox cycling with DTT, fluorescence; redox activity (% of DA3003): at 53.8 µM (top of the series);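 note: 0% = DMSO and 100% = reference compound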
In short: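 Redox-cycling detection via DTT (250 uM final) oxidation coupled to Amplex Red (25 uM)/HRP (250 mU/mL) in HBSS. 15 min preincubation plus 30 min after DTT, room temperature. Ex/Em 525/598 nm; 4-parameter Hill fit against DMSO and 10 uM DA3003.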

HEK293 = experiment: Cytotoxic Profiling of Annotated Libraries Using Quantitative High-Throughput Screening (AID 1296008); conditions: Five cell lines viability, CellTiter-Glo ATP luminescence, 48-72 h; max response: active compounds read low; note: nearly all actives have a fitted effect of over 60% in size; note: potency is the fitted concentration of half-maximal effect
In short: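 Compounds were pin-transferred onto cells and incubated 48 or 72 hr at 37 degree Celsius, 95% humidity. CellTiter-Glo was added, plates sat 10 min at room temperature, then ATP-coupled luminescence was imaged as the viability read-out.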

SKOV3 = experiment: Primary qHTS to identify gynecologic anti-cancer compounds using libraries of approved drugs and bioactive compounds (AID 1345084); conditions: Gynecologic cancer cell panel viability, ATPlite luminescence, 48 h; series mostly up to 57.5 µM; note: % is set by controls: 0 for no effect and ±100 for the full control effect; nearly all actives have a fitted effect of over 55% in size
In short: (§1)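 48 h compound exposure at 37 C, 5% CO2; five-point qHTS. ATPlite luminescence readout of cell ATP.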

[4] = qHTS of pediatric cancer cell lines to identify multiple opportunities for drug repurposing: Primary screen for Saos-2 cells (AID 1347097); note: potency is the fitted concentration of half-maximal effect; nearly all actives have a fitted effect of over 40% in size
In short: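 Primary screen of approved and investigational compounds on cells in growth media at 37 degrees C, 5% CO2. MIPE set at 11-point and NPC set at 8-point dilutions; viability scored by ATP-based luminescence at 48 hours.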

[5] = Primary qHTS for inhibitors of La Crosse Virus (LACV) - induced cell death in SH-SY5Y cells (AID 1508616);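 note: top concentration of the series differs between compounds; 0% = infected DMSO wells and 100% = uninfected DMSO wells; higher means more rescue of cells from virus-induced death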
In short: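 SH-SY5Y, 6000 cells/well; cpd via pin tool in DMSO; LACV 0.01 MOI; 6 d 37C 5% CO2; ATPLite, 5 min RT; luminescence normalized to ±virus DMSO controls.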

[6] = Primary qHTS for small molecule stabilizers of the endoplasmic reticulum resident proteome: Secreted ER Calcium Modulated Protein (SERCaMP) assay (AID 1508630); conditions: SH-SY5Y GLuc-SERCaMP (Gaussia luciferase released on ER calcium loss) secretion, thapsigargin, luminescence; activity change, negative = inhibition: at 38.4 µM (top of the series) unless noted; note: potency is the fitted concentration of half-maximal effect
In short: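 The SH-SY5Y reporter protocol was run at 3 concentrations up to 38.3 uM (primary) or 11 concentrations (follow-up): 16 h compound, 100 nM thapsigargin for 4 h, then extracellular luciferase luminescence.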

[7] = target: Cytochrome P450 2C9 (Homo sapiens) (UniProt P11712); experiment: Cytochrome P450 family 2 subfamily C member 9 (CYP2C9) small molecule antagonists: luciferase biochemical (cell-free) qHTS assay (AID 1645842; active = well fitted curve in the direction sought with a large enough effect in the repeat runs; inconclusive = weak or mixed curves; inactive = no such curve, though single readings can be large; an effect the other way counts as inactive or inconclusive; note: % is set by controls: 0 for no effect and ±100 for the full control effect; nearly all actives have a fitted effect of over 55% in size)
Chain of UniProt P11712 (P11712 whole entry, looked up): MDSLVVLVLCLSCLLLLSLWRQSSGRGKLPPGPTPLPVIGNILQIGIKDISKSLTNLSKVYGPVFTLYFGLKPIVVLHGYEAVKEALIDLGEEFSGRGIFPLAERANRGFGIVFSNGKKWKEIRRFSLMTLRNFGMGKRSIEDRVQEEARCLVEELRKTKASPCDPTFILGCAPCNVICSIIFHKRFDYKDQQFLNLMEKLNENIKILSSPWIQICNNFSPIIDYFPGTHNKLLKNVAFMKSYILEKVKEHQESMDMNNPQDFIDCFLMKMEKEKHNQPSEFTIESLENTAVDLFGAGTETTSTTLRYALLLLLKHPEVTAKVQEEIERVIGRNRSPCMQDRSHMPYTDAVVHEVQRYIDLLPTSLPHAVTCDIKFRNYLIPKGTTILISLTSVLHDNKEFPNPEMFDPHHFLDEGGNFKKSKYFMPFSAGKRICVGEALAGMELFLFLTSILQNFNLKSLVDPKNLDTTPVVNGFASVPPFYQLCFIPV
In short: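 P450-Glo CYP2C9 system: proluciferin substrate with enzyme in mix containing 0.4% BSA, 10 min at room temperature, then NADPH regeneration solution added and incubated 1 h at 37C. Detection reagent stopped reaction; luminescence read after 20 min as RLU.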

Tov112D = experiment: Primary qHTS to identify gynecologic anti-cancer compounds using libraries of approved drugs and bioactive compounds (AID 1345084); conditions: Gynecologic cancer cell panel viability, ATPlite luminescence, 48 h; series mostly up to 57.5 µM; note: % is set by controls: 0 for no effect and ±100 for the full control effect; nearly all actives have a fitted effect of over 55% in size
In short: as §1
Tags give direction and shape of the fitted curve.

CCCCOC(=O)NS(=O)(=O)c1sc(CC(C)C)cc1-c1ccc(Cn2ccnc2)cc1
inconclusive: Potency [1] 20.6 µM [inhibitor, single point] | activity change, negative = inhibition [2] -34.2% [inhibitor] | Potency (HEK293) 23.1 µM [inhibitor, single point]
inactive: Potency [3] | Potency (SKOV3)

CCOc1ccccc1OCC1CNCCO1 (configuration not stated)
inconclusive: Potency [4] 1.19 µM [cytotoxic, partial curve] | Potency [6] 11.2 µM [inhibitor, partial curve, poor fit]
inactive: Potency [5] | Potency [7] | outcome (HEK293) | Potency (SKOV3) | Potency (Tov112D)
